Data on 89 molecules can be found in article PMC4336329 (PLoS ONE, 2015).

The whole screen tested about 310,000 compounds, of which about 14,000 (4.5%) showed an effect of 50% or more. The effect is printed as a negative number. This is one part of the list.
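Note: peak tail current of the secondary pulse compared with the same well before compound.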

The assay deals with human ether-à-go-go-related gene (hERG) potassium channel (human, UniProt Q12809). The assay is described as follows: primary screen, population patch clamp on CHO cells stably expressing hERG.
human ether-à-go-go-related gene (hERG) potassium channel, sequence (Q12809 whole entry, looked up): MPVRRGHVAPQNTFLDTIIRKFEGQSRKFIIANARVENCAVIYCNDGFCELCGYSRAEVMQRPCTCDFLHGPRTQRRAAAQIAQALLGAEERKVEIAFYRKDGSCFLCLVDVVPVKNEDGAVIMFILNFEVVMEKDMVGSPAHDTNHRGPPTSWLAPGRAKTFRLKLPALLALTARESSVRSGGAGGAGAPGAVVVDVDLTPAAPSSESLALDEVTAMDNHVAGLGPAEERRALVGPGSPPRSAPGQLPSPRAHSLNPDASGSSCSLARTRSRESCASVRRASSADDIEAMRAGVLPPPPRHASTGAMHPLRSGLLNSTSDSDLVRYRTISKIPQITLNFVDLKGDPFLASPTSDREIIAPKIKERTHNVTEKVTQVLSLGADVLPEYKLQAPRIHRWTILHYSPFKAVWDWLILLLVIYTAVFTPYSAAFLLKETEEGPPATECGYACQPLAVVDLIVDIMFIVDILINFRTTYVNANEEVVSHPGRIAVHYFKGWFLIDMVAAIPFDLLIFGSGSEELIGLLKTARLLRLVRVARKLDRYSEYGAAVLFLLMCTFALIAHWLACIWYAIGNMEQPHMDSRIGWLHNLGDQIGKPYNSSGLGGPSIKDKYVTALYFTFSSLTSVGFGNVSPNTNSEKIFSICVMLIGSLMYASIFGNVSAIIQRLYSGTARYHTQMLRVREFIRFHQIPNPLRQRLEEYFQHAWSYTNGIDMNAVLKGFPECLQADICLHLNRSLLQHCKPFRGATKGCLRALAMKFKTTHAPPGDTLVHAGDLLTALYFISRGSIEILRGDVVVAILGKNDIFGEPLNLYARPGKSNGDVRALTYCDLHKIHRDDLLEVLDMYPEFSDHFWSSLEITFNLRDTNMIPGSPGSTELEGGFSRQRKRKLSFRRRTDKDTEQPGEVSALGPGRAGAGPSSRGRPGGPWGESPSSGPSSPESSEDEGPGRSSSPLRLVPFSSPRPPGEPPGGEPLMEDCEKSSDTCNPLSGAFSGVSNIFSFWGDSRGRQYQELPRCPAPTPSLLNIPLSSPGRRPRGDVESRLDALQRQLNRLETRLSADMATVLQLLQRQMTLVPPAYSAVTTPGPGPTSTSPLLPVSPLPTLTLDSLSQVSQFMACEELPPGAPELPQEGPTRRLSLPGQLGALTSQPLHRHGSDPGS
In the case of `CS/C(=N\S(=O)(=O)c1ccc(N)cc1)NS(=O)(=O)c1cccs1`, the “hERG current change (%, negative = inhibition) at 10uM” value came to 2.07%.
With `CC1=CC(=C(C#N)C#N)C=C(C)N1Cc1ccc(Cl)cc1`, the “hERG current change (%, negative = inhibition) at 10uM” value is listed as 5.27%.
With `CC(=O)c1cc(-c2ccccc2)n(CCC(=O)NCc2cccs2)c1C` the figure was -13.5%.
For `CN(c1ccc(OCC(=O)N2CCCCC2)cc1)S(=O)(=O)c1cccs1`, the “hERG current change (%, negative = inhibition) at 10uM” value is listed as -11.2%.
With `Cc1cc(C)c[n+](C2=C([O-])c3ccccc3C(=O)/C2=N\S(=O)(=O)c2cccs2)c1`, the “hERG current change (%, negative = inhibition) at 10uM” value is -5.34%.
With `CN(C)C(=O)Oc1ccc([N+](=O)[O-])cc1`, the “hERG current change (%, negative = inhibition) at 10uM” value came out at 18.1%.
The value for `Cc1ccccc1OCC(=O)NC(=S)Nc1ccc(S(=O)(=O)NC2CCCCC2)cc1` was 16.1%; that for `O=C(NCc1nc2ccccc2[nH]1)C1=C[C@H](c2ccccc2)C[C@H](OCc2ccc(CO)cc2)O1` was -13.6%; that for `Cc1nc2cc(NC(=O)CS(=O)(=O)c3ccc(F)cc3)ccc2s1` was -55.8%.
For the molecule `Clc1cc(Cl)c(Cl)cc1Cl`, the “hERG current change (%, negative = inhibition) at 10uM” value amounted to 13.4%.
`Cc1cc(OC(=O)c2cccc(Br)c2)c([N+](=O)[O-])c(=O)[nH]1`: the “hERG current change (%, negative = inhibition) at 10uM” value worked out at 5.03%.
Consider `CC(=O)c1cccc(NC(=O)COC(=O)COc2ccc(Cl)cc2)c1`, for which the “hERG current change (%, negative = inhibition) at 10uM” value is listed as 20%.
Consider `COC(=O)c1[nH]c(C)c(/C(O)=C2\C(=O)C(=O)N(CCN(C)C)C2c2cccs2)c1C` (centres unmarked), for which the “hERG current change (%, negative = inhibition) at 10uM” value is reported as 16.9%.
Consider `Cc1cccc(NC(=O)c2c(C)nn(-c3ccccc3)c2Cl)c1`, for which the “hERG current change (%, negative = inhibition) at 10uM” value is listed as -4.56%.
On to `O=S(=O)(NCc1ccccn1)c1ccc2ccccc2c1`, for which the “hERG current change (%, negative = inhibition) at 10uM” value was -1.97%.
Regarding `Cc1ccc2nsnc2c1NC(=O)COc1ccccc1F`, the “hERG current change (%, negative = inhibition) at 10uM” value was -13.8%.
`O=C(Nc1ccc(F)cc1)Nc1ccc2c(c1)CCC2`: the “hERG current change (%, negative = inhibition) at 10uM” value was 12.6%.
In the case of `CCOC(=O)C1(Cc2cccc(F)c2)CCN(Cc2nc(CC)[nH]c2C)CC1`, the “hERG current change (%, negative = inhibition) at 10uM” value is listed as -22.2%.
With `O=C(c1ccccc1[N+](=O)[O-])N1N=C(c2ccccc2)CC1(O)C(F)(F)F` (centres unmarked) the figure was 9.76%; with `COc1cc(NC(=O)[C@H]2CSCN2C(=O)[C@@H]2CCC(=O)N2)cc(OC)c1OC`, 8.8%.
As for `Cc1ccc(S(=O)(=O)Nc2nc(C)cc(NN)n2)cc1`, the “hERG current change (%, negative = inhibition) at 10uM” value was 17.3%.
As to `COc1cc(C2NC(=O)NC(C)=C2C(=O)OCc2ccccc2)ccc1O` (centres unmarked), the “hERG current change (%, negative = inhibition) at 10uM” value was -15.8%.
With `CN(C)CCCNc1cc(C(C)(C)C)nc2c(-c3ccccc3)cnn12`, the “hERG current change (%, negative = inhibition) at 10uM” value is reported as -18.3%.
With `CC(C)c1nc2sc3c(SCC(=O)NCc4ccco4)ncnc3c2c2c1CCC2` the figure was -3.54%; with `CC(C)(C)C(=O)NCCn1ccc2ccccc21`, 18%.
In the case of `CC1(C)C(N(O)C(=O)Nc2ccccc2)N(c2cccc(Cl)c2)C(=O)N1O` (centres unmarked), the “hERG current change (%, negative = inhibition) at 10uM” value is 9.66%.
For `COc1ccc(OC)c(NC(=O)CCN2CC(C)CC(C)C2)c1.Cl` (centres unmarked), the “hERG current change (%, negative = inhibition) at 10uM” value was 4.41%.
Take `Cc1nnc(N2C(=O)c3oc4ccccc4c(=O)c3C2c2ccco2)s1` (centres unmarked): the “hERG current change (%, negative = inhibition) at 10uM” value worked out at 5.18%.
`Cc1ccc(N2CC(C(=O)OCc3ccc([N+](=O)[O-])cc3)CC2=O)cc1` (centres unmarked): the “hERG current change (%, negative = inhibition) at 10uM” value is listed as -58.5%.
With `Cc1nc(NC(=O)c2cccc(-c3cc4ccccc4oc3=O)c2)ccc1Br` the figure was 3.12%.
Turning to `Cc1cc2ccccc2n1CCNC(=O)Cc1cccc2ccccc12`, the “hERG current change (%, negative = inhibition) at 10uM” value is 21.7%.
On to `O=C(CCCc1ccccc1)Nc1nncs1`, for which the “hERG current change (%, negative = inhibition) at 10uM” value is 11.2%.
With `CCN(CC)CCNS(=O)(=O)c1ccc(C(=O)NN)cc1` the figure was -0.906%; with `CCOC(=O)c1c(OCC)[nH]c2c1cc(O)c1ccccc12`, -1.01%.
With `Cc1ccccc1C(=O)Nc1nc(SCc2ccc(Cl)cc2)n[nH]1` the figure was 11.1%; with `COC(=O)Cn1c(C)nc2ccccc21`, 1.78%.
With `COc1ccc(S(=O)(=O)NC(C)C(=O)NCc2ccco2)cc1OC` (centres unmarked) the figure was 6.08%.
On to `CCOc1cc(C(=O)Nc2cc(C)ccn2)cc(OCC)c1OCC`, for which the “hERG current change (%, negative = inhibition) at 10uM” value is -15.3%.
For the molecule `O=C(NCc1ccco1)c1ccc(Cl)c(S(=O)(=O)Nc2ccccc2)c1`, the “hERG current change (%, negative = inhibition) at 10uM” value is listed as 12.5%.
With `CC1=C(C(=O)OCc2ccccc2)C(c2ccc([N+](=O)[O-])cc2)NC(=O)N1C` (centres unmarked), the “hERG current change (%, negative = inhibition) at 10uM” value is listed as -42.9%.
Turning to `O=C(NNC1CC(=O)N(c2ccc(Cl)cc2)C1=O)c1ccco1` (centres unmarked), the “hERG current change (%, negative = inhibition) at 10uM” value came to 8.44%.
Take `COc1ccc(NC(=O)CSc2nnc(CNC(=O)COc3ccc(Cl)cc3)o2)cc1`: the “hERG current change (%, negative = inhibition) at 10uM” value came to 18.1%.
Consider `COc1ccc(CCC(=O)OCC(=O)N2CCN(S(=O)(=O)c3ccc(C)cc3C)CC2)cc1`, for which the “hERG current change (%, negative = inhibition) at 10uM” value came to 5.48%.
Consider `CCCCN(C)C(=O)c1cc2cc([N+](=O)[O-])cc(OC)c2oc1=O`, for which the “hERG current change (%, negative = inhibition) at 10uM” value is given as 9.37%.
The value for `COc1ccc(N(C2=NCCCS2)S(=O)(=O)c2ccc(C(C)(C)C)cc2)cc1` was 0.221%; that for `CCOC(=O)c1cc(C)sc1/N=C/C1C(=O)NC(=S)NC1=O` was 12.6%; that for `COC(=O)c1ccccc1NCCO` was 14.4%.
On to `O=C(C1=C(O)C(=O)N(CCOCCO)C1c1cccc([N+](=O)[O-])c1)c1cccs1` (centres unmarked), for which the “hERG current change (%, negative = inhibition) at 10uM” value was 17.3%.
On to `CCOc1ccc(N(CC(=O)NCC2CCCO2)C(=O)CCC(=O)Nc2nccs2)cc1` (centres unmarked), for which the “hERG current change (%, negative = inhibition) at 10uM” value stood at 2.69%.
With `CC(=O)NCCn1c(SCC(=O)c2ccc(Cl)cc2)nc2ccccc2c1=O`, the “hERG current change (%, negative = inhibition) at 10uM” value was -4.33%.
As to `Cn1nnnc1Sc1ncnc2scc(-c3cccc(S(C)(=O)=O)c3)c12`, the “hERG current change (%, negative = inhibition) at 10uM” value was -25.2%.
As for `O/N=C(/c1ccc(F)cc1)C1CC1c1c(F)cccc1Cl` (centres unmarked), the “hERG current change (%, negative = inhibition) at 10uM” value was -9%.
Consider `Cc1nnc(N2CCOCC2)c2nn(-c3cccc(Cl)c3)c(C)c12`, for which the “hERG current change (%, negative = inhibition) at 10uM” value was -18.1%.
For the molecule `O=C(Nc1ccc(-c2cn3ccsc3n2)cc1)C1CC1`, the “hERG current change (%, negative = inhibition) at 10uM” value was -2.76%.
Consider `S=C(NCCc1ccccc1)N1CCc2ccccc2C1`, for which the “hERG current change (%, negative = inhibition) at 10uM” value is recorded as -9.51%.
`CS(=O)(=O)N1CCCC(C(=O)NCCCN2CCN(Cc3ccccc3)CC2)C1` (centres unmarked): the “hERG current change (%, negative = inhibition) at 10uM” value was -8.38%.
On to `O=c1c2ccccc2nc(/C=C/c2ccc(Cl)cc2)n1CCO`, for which the “hERG current change (%, negative = inhibition) at 10uM” value turned out to be 15%.
Take `Cc1ccc(Cn2nnc3c(=O)[nH]c(C4CCCN(S(=O)(=O)c5ccc(F)cc5)C4)nc32)cc1` (centres unmarked): the “hERG current change (%, negative = inhibition) at 10uM” value was found to be 30.2%.
For the molecule `Cc1cccc(Oc2ccccc2NC(=O)CN2C(=O)NC3(CCCC3)C2=O)c1`, the “hERG current change (%, negative = inhibition) at 10uM” value is -6.76%.
With `CCCCC1(CN2CCCC2=O)C(=O)NC(=O)NC1=O` the figure was 6.1%.
On to `O=C(Nc1cccc(Cl)c1Cl)c1ccccc1OCC(=O)N1CCOCC1`, for which the “hERG current change (%, negative = inhibition) at 10uM” value is -13.5%.
With `CN1CCN(CC(=O)Nc2nc3ccccc3s2)CC1.O=CO` the figure was -5.53%; with `CCOC(=O)COc1cc(-n2c(=S)[nH]c3cc(OC)c(OC)cc3c2=O)c(Cl)cc1Cl`, -0.964%.
Turning to `Cc1c(N=Cc2nc3ccccc3n2C)c(=O)n(-c2ccccc2)n1C`, the “hERG current change (%, negative = inhibition) at 10uM” value was -27.7%.
Consider `CCOC(=O)c1c(NC(=O)c2ccno2)c2cc([N+](=O)[O-])ccc2n1C`, for which the “hERG current change (%, negative = inhibition) at 10uM” value is listed as 14.7%.
Consider `O=C(N/N=C/c1cccnc1)c1ccc2c(c1)OCO2`, for which the “hERG current change (%, negative = inhibition) at 10uM” value amounted to 10.4%.
Regarding `CCCCN(C(C)=O)c1c(N)n(CCC)c(=O)n(CC(=O)Nc2cc(Cl)cc(Cl)c2)c1=O`, the “hERG current change (%, negative = inhibition) at 10uM” value is 16.7%.
The value for `COc1ccc(C(=O)NCCc2nnc3ccc(SCC(=O)N4CCOCC4)nn23)cc1` was 9%.
Consider `COc1cc(NC(=O)CCn2c(=S)oc3ccccc32)cc(OC)c1OC`, for which the “hERG current change (%, negative = inhibition) at 10uM” value amounted to 4.62%.
Turning to `C[C@H]1CN=C(Nc2ccccc2)N1CC1CCC1`, the “hERG current change (%, negative = inhibition) at 10uM” value is given as -0.391%.
For the molecule `Cc1nn(CC(=O)NCCN2CCCCCC2)c(=O)c2nn(-c3ccccc3)c(C)c12`, the “hERG current change (%, negative = inhibition) at 10uM” value was 18%.
Take `CCOC(=O)CSc1cc(-c2ccccc2)nc2ncnn12`: the “hERG current change (%, negative = inhibition) at 10uM” value is -44.5%.
For `CCCCNC(=O)CN1C(=O)C(CC)Oc2ccc(Cl)cc21` (centres unmarked), the “hERG current change (%, negative = inhibition) at 10uM” value is on record as 5.95%.
As to `CC1CCc2sc3ncnc(N4CCOCC4)c3c2C1` (centres unmarked), the “hERG current change (%, negative = inhibition) at 10uM” value was -17.3%.
As for `Cn1c(=O)c2c(nc3n2CC(COc2ccc(Cl)cc2)O3)n(C)c1=O` (centres unmarked), the “hERG current change (%, negative = inhibition) at 10uM” value was -10.9%.
`CC(Oc1ccccc1F)C(=O)NC1CCS(=O)(=O)C1` (centres unmarked): the “hERG current change (%, negative = inhibition) at 10uM” value is 11%.
For the molecule `O=C(CCSc1ccc(F)cc1)Nc1ccc(-n2cnnn2)cc1`, the “hERG current change (%, negative = inhibition) at 10uM” value was -26.4%.
In the case of `Cc1nc(C)c(N)c(=O)[nH]1.Cl`, the “hERG current change (%, negative = inhibition) at 10uM” value is 16.3%.
`Cc1cc(C(F)(F)F)nn1CC(=O)NCc1ccco1`: the “hERG current change (%, negative = inhibition) at 10uM” value turned out to be 9.81%.
In the case of `COc1ccccc1NC(=S)Nc1ccccc1F`, the “hERG current change (%, negative = inhibition) at 10uM” value is reported as 17.1%.
The value for `COc1ccccc1C(=O)NC(=S)Nc1cc(C(=O)O)ccc1C` was 13%; that for `O=C(c1cccs1)N(Cc1ccco1)Cc1cc2ccccc2[nH]c1=O` was -15.1%.
As to `Nc1nc(NCCCN2CCOCC2)nc(Nc2ccc(F)cc2)c1[N+](=O)[O-]`, the “hERG current change (%, negative = inhibition) at 10uM” value was -58.6%.
With `COc1ccccc1CN(CC(=O)NCc1ccc2c(c1)OCO2)C(=O)c1csnn1`, the “hERG current change (%, negative = inhibition) at 10uM” value was -34.2%.
The value for `O=C(CSc1nnc(-c2cccnc2)n1-c1ccc(F)cc1)NCc1ccc2c(c1)OCO2` was -72.5%.
In the case of `COc1ccc(-n2sc3c(c2=S)-c2cc(OC)ccc2NC3(C)C)cc1`, the “hERG current change (%, negative = inhibition) at 10uM” value is 1.92%.
With `CCCOc1ccc(OCCN2CCCC(C)C2)cc1.O=C(O)C(=O)O` (centres unmarked) the figure was -52.2%; with `COc1cccc(C(c2nnnn2Cc2ccco2)N2CCN(Cc3ccccc3)CC2)c1OC.Cl` (centres unmarked), -40.3%.
Turning to `Cc1ccc(C(=O)COc2ccccc2-c2ccccc2)cc1`, the “hERG current change (%, negative = inhibition) at 10uM” value is listed as -2.78%.
